Assays:
[1] = target: K-Ras WT (Homo sapiens, UniProt P01116); assay: SOS1 catalyzed nucleotide exchange assay (GDP form K-Ras), TR-FRET; conditions: read-out: Biochemical assays, IC50, K-Ras WT GDP
Protocol: (§1) The parameters were F486: Excitation 340 nm, Emission 486 nm, Lag time 100 pas, Integration time 200 pas; F515: Excitation 340 nm, Emission 515 nm, Lag time 100 pas, Integration time 200 pas. TR-FRET ratios for each individual wells were calculated by equation: TR-FRET ratio=(Signal F515/Signal F486)*10000.

[2] = target: T1, K-Ras Q61H (Homo sapiens, UniProt P01116, Q61H); assay: as above; conditions: read-out: Biochemical assays, IC50, K-Ras Q61H GDP
Protocol: as §1

[3] = target: T2, K-Ras G12R (Homo sapiens, UniProt P01116, G12R); assay: as above; conditions: read-out: Biochemical assays, IC50, K-Ras G12R GDP
Protocol: as §1

[4] = target: K-Ras G12A (Homo sapiens, UniProt P01116, G12A); assay: GTP-K-Ras (GppNp-K-Ras) and cRAF interaction assay, HTRF; conditions: read-out: Biochemical assays, IC50, K-Ras G12A GppNp
Description: (§2) GppNp is an analog of GTP.

[5] = target: T1, K-Ras Q61H; assay: as above; conditions: read-out: Biochemical assays, IC50, K-Ras Q61H GppNp
Description: as §2

[6] = target: T2, K-Ras G12R; assay: as above; conditions: read-out: Biochemical assays, IC50, K-Ras G12R GppNp
Description: as §2

[7] = target: K-Ras G12D (Homo sapiens, UniProt P01116, G12D); assay: as above; conditions: read-out: Biochemical assays, IC50, K-Ras G12D GppNp
Description: as §2

[8] = target: T3, K-Ras G12V (Homo sapiens, UniProt P01116, G12V); assay: SOS1 catalyzed nucleotide exchange assay (GDP form K-Ras), TR-FRET; conditions: read-out: Biochemical assays, IC50, K-Ras G12V GDP
Protocol: as §1

[9] = target: T3, K-Ras G12V; assay: GTP-K-Ras (GppNp-K-Ras) and cRAF interaction assay, HTRF; conditions: read-out: Biochemical assays, IC50, K-Ras G12V GppNp
Description: as §2

C#Cc1c(F)ccc2cc(O)cc(-c3ncc4c(N(C)C5(C#N)CC5)nc(OC[C@@]56CCCN5C[C@H](F)C6)nc4c3F)c12 [Compound 59, 1-((7-(8-ethynyl-7-fluoro-3-hydroxy-naphthalen-1-yl)-8-fluoro-2-(((2R,7aS)-2-fluorotetrahydro-1H-pyrrolizin-7a(5H)-yl)methoxy)pyrido[4,3-d]pyrimidin-4-yl)(methyl)amino)cyclopropane-1-carbonitrile]
IC50 [1]: 214 nM

[2H]C([2H])([2H])N(c1nc(OC([2H])([2H])[C@@]23CCC([2H])([2H])N2C[C@]([2H])(F)C3)nc2c(F)c(-c3cc(O)cc4ccc(F)c(C#C)c34)ncc12)C1CC1 [Compound 26, 4-(4-(cyclopropyl(methyl-d3)amino)-8-fluoro-2-(((2R,7aS)-2-fluorotetrahydro-1H-pyrrolizin-7a(5H)-yl-2,5,5-d3)methoxy-d2)pyrido[4,3-d]pyrimidin-7-yl)-5-ethynyl-6-fluoronaphthalen-2-ol]
IC50 [2]: 8.56 nM
IC50 [3]: 8.85 nM
IC50 [4]: 411 nM
IC50 [5]: 172 nM
IC50 [6]: 154 nM

O=C(O)C(F)(F)F.[2H]C([2H])([2H])N(c1nc(OC[C@@]23CCCN2C[C@H](F)C3)nc2c(F)c(-c3cc(O)cc4ccc(F)c(C#C)c34)ncc12)[C@H]1C[C@@H]1F [Compound 7, 5-ethynyl-6-fluoro-4-(8-fluoro-4-(((1S,2S)-2-fluorocyclopropyl)(methyl-d3)amino)-2-(((2R,7aS)-2-fluorotetrahydro-1H-pyrrolizin-7a(5H)-yl)methoxy)pyrido[4,3-d]pyrimidin-7-yl)naphthalen-2-ol 2,2,2-trifluoroacetic acid]
IC50 [7]: 17.6 nM

C#Cc1c(F)ccc2cc(O)cc(-c3ncc4c(N(C5CC5)C5CC5)nc(OC[C@@]56CCCN5C[C@H](F)C6)nc4c3F)c12 [Compound 48, 4-(4-(dicyclopropylamino)-8-fluoro-2-(((2R, 7aS)-2-fluorotetrahydro-1H-pyrrolizin-7a(5H)-yl)methoxy)pyrido[4,3-d]pyrimidin-7-yl)-5-ethynyl-6-fluoronaphthalen-2-ol]
IC50 [1]: 140 nM

C#Cc1c(F)ccc2cc(O)cc(-c3ncc4c(N(C)[C@@H]5C[C@@H]5F)nc(OC[C@@]56CCCN5C[C@H](F)C6)nc4c3F)c12 [Compound 13, 5-ethynyl-6-fluoro-4-(8-fluoro-4-(((1R,2S)-2-fluorocyclopropyl)(methyl)amino)-2-(((2R,7aS)-2-fluorotetrahydro-1H-pyrrolizin-7a(5H)-yl)methoxy)pyrido[4,3-d]pyrimidin-7-yl)naphthalen-2-ol]
IC50 [8]: 5.11 nM
IC50 [9]: 1820 nM
IC50 [7]: 1310 nM

— patent publication US20240376128A1, “N-CYCLOPROPYLPYRIDO [4, 3-D] PYRIMIDIN-4-AMINE DERIVATIVES AND USES THEREOF” (Jacobio Pharmaceuticals Co., Ltd., priority 2021, published 2024)
